Where “and” joins values, the source holds several entries; their conditions need not be identical. Equal values may be shown once. In all, about 340,000 compounds went through this assay and about 12,000 (3.5%) were called active. Inconclusive results, whose numbers are uncertain, are shown with a selection of clear calls. Calls come from the whole dose curve; as a rule, active = well fitted inhibition curve with a large enough effect; inconclusive = small, poorly fitted or top-dose-only effect, or another doubt; inactive = no such curve, though single readings can be large or run the other way. Potencies of inconclusive entries are doubtful fits and often do not repeat.
Assay: qHTS Assay for Inhibitors of Hepatitis C Virus (HCV)
Settings: Huh7.5.1 HCVcc-Cre (HCVcc is cell-culture hepatitis C virus) infection, luciferase reporter, 44 h; activity change, negative = inhibition: at 41.8 µM (top of the series)
Summary of the method: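 Infectious HCV cell culture screen: compound-treated cells (1,000/well, pre-plated 4 h) are infected with HCVcc-Cre at roughly 0.5 moi and grown 44 h. Infection is quantified by luciferase signal after 15 min substrate incubation at room temperature.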
% is set by controls: 0 for no effect and ±100 for the full control effect; potency is the fitted concentration of half-maximal effect; tags give direction and shape of the fitted curve.

Row | Compound | activity change, negative = inhibition | Potency
1 | N#Cc1ccc(-c2nc3ccc(Br)cc3c(=O)n2O)cc1 | inactive: 19.1% | –
2 | CC(=O)Nc1ccc2c(c1)nc(CCN1CCC(C)CC1)n2C | inactive: 12.1% | –
3 | CCCCCCCCCCOC(=O)Cn1c(COc2ccc(OC)cc2)[n+](C)c2ccccc21 | – | inconclusive: 20 µM [inhibitor, single point] and inconclusive: 14.1 µM [inhibitor, single point]
4 | CCOC(=O)Nc1nc(-c2ccccc2)c(C(=O)c2ccccc2)s1 | – | inconclusive: 0.501 µM [inhibitor, partial curve, poor fit]
5 | COc1ccc(NC(=O)Nc2ccc(C)cc2OC(F)F)cc1OC | – | active: 6.31 µM
6 | N#Cc1c(NC(=O)CSC2=NCCS2)sc2c1CCCC2 | – | inconclusive: 3.16 µM [inhibitor, full curve]
7 | COc1cccc(N=Nc2ccc(O)c3ncccc23)c1 | – | active: 6.31 µM
8 | COc1ccccc1NC(=O)COC(=O)c1[nH]c(=O)[nH]c(=O)c1N | inactive: 15.4% | –
9 | COC(=O)C(C)N(C(=O)c1ccc(C(=O)c2ccccc2)cc1)c1c(C)cccc1C (stereo not drawn) | – | inconclusive: 11.2 µM [inhibitor, single point]
10 | Cc1ccc(-c2ccc(/C=C3\C(=O)ON=C3c3ccccc3)o2)c([N+](=O)[O-])c1 | – | inconclusive: 31.6 µM [inhibitor, single point]
11 | Cc1cc(C)c(NC(=O)CNC(=O)c2cc([N+](=O)[O-])ccc2N2CCOCC2)c(C)c1 | – | active: 25.1 µM
12 | Cc1ccc(C2(c3ccccc3)NC(=O)N(CC(=O)N(C)C3CCS(=O)(=O)C3)C2=O)cc1C (stereo not drawn) | inactive: 5.69% | –
13 | Cc1ccc2c(c1)c1c(n2CC(O)CNC(CO)(CO)CO)CCCC1 (stereo not drawn) | – | inconclusive: 6.31 µM [inhibitor, full curve]
14 | Cc1ccc2cc(C3CC(c4ccco4)=NN3S(=O)(=O)c3ccccc3)c(Cl)nc2c1 (stereo not drawn) | inactive: -3.26% | –
15 | O=C(CN1CCN(Cc2ccc(F)cc2)CC1)Nc1ccccc1F | – | inconclusive: 3.98 µM [inhibitor, single point]
16 | CC(C)c1cc(C(F)(F)F)n2nc(C(=O)Nc3ccc(-n4cnnn4)cc3)cc2n1 | – | inconclusive: 2.24 µM [inhibitor, partial curve]
17 | COc1ccc(CCn2c(C)ccc2C)cc1OC | – | inconclusive: 14.1 µM [inhibitor, single point]
18 | CCc1ccccc1NC(=O)CN1CCN(C(=O)CN2C(=O)NC3(CCCCC3C)C2=O)CC1 (stereo not drawn) | – | inconclusive: 2.51 µM [inhibitor, partial curve, poor fit]
19 | CCOC(=O)C1=C(CNCc2ccccc2Cl)NC(=O)NC1c1cccc([N+](=O)[O-])c1 (stereo not drawn) | – | inconclusive: 31.6 µM [inhibitor, single point]
20 | O=C(/C=C/c1ccccc1)N1c2ccccc2Sc2ccc(C(F)(F)F)cc21 | inactive: 31.1% | –
21 | O=C(c1ccco1)N1CCN=C1SCc1c(F)cccc1Cl | – | inconclusive: 10 µM [inhibitor, partial curve]
22 | NC(=O)CC(NC(=O)c1ccc(Br)cc1)c1ccc(N2CCC(Cc3ccccc3)CC2)c([N+](=O)[O-])c1 (stereo not drawn) | – | inconclusive: 31.6 µM [inhibitor, single point]

Row | Compound | activity change, negative = inhibition | Potency
23 | CCOP(=O)(OCC)c1nc(-c2cccc3ccccc23)oc1N1CCCCC1 | – | inconclusive: 22.4 µM [inhibitor, single point]
24 | COc1ccc(C(NC(=O)c2c(F)c(F)c(F)c(F)c2F)c2ccccc2)cc1 (stereo not drawn) | – | inconclusive: 31.6 µM [inhibitor, single point]
25 | COc1ccc(S(=O)(=O)N(CC(=O)NCc2ccco2)c2ccccc2)cc1 | inactive: -18.2% | –
26 | CCCOc1ccc(/C=N/Nc2ccccc2[N+](=O)[O-])c(OCCC)c1 | – | inconclusive: 3.98 µM [inhibitor, full curve, poor fit]
27 | COc1cccc(NC(=O)CN(C)C(=O)c2c(C)nn(Cc3ccc(C)cc3)c2Cl)c1 | – | inconclusive: 11.2 µM [inhibitor, partial curve]
28 | Cc1[nH]c2ccccc2c1C1=NNC(=Nc2ccc(F)cc2)SC1 | – | inconclusive: 22.4 µM [inhibitor, single point]
29 | Cc1ccc(-n2ncc3c(=O)n(CC(=O)NC4CCCCC4)cnc32)cc1 | inactive: 7.78% | –
30 | COc1ccc(S(=O)(=O)N2CCN(C(=O)CCNC(=O)c3ccccc3Cl)CC2)cc1 | inactive: -8.91% | –
31 | CC(Oc1cccc(Cl)c1)C(=O)Nc1ccccc1C(=O)N1CCCCC1 (stereo not drawn) | inactive: -13.1% | –
32 | Cc1nnc(SCCn2c(N(C)Cc3ccccc3)nc3c2c(=O)[nH]c(=O)n3C)s1 | inactive: 4.45% | –
33 | S=C(c1cn(CCOc2ccccc2)c2ccccc12)N1CCCC1 | – | active: 11.2 µM
34 | CCCn1c(SCC(=O)NCCc2ccccc2)nnc1-c1ccco1 | – | inconclusive: 0.501 µM [inhibitor, partial curve, poor fit]
35 | Cc1cc(OCCSc2nnc(-c3cccs3)n2C)ccc1Cl | – | inconclusive: 10 µM [inhibitor, single point]
36 | CC(C)Oc1ccc2c3c(c(=O)oc2c1)CCC3 | – | inconclusive: 15.8 µM [inhibitor, single point]
37 | COc1cc(C(C(=O)NC2CCCCC2)N(Cc2cccs2)C(=O)Cc2c[nH]c3ccccc23)cc(OC)c1OC (stereo not drawn) | – | inconclusive: 14.1 µM [inhibitor, single point]
38 | Cc1ccc(CSCC(=O)Nc2cc(S(=O)(=O)N3CCOCC3)ccc2OC(C)C)cc1 | – | inconclusive: 10 µM [inhibitor, partial curve]
39 | c1cnc(-c2noc(CN3CCN(C4C5CC6CC(C5)CC4C6)CC3)n2)cn1 (stereo not drawn) | inactive: 3.8% | –
40 | O=C1CN(C(=O)c2ccccc2[N+](=O)[O-])C(c2ccccc2)c2cc(Br)ccc2N1 (stereo not drawn) | – | inconclusive: 12.6 µM [inhibitor, single point]
41 | Fc1ccc(N2CCN(Cc3cc4c(cc3Br)OCO4)CC2)cc1 | inactive: -7.5% | –
42 | CC(C)CNC(=S)Nc1ccc(Oc2ccccc2)cc1 | – | inconclusive: 31.6 µM [inhibitor, single point]
43 | CCOC(=O)c1c(NC(=O)CCC(=O)N(CC)CC)sc2c1CC(C)(C)OC2 | – | inconclusive: 3.55 µM [inhibitor, full curve, poor fit]
